# Reference: PubChem BioAssay AID504332 (National Center for Advancing Translational Sciences (NCATS), 2011)
# “And” between values parts separate entries of the source, which are not always exact repeats. Identical values can stand only once. Out of some 350,000 compounds screened, about 31,000 (8.9%) were called active. The shares of active, inactive and inconclusive entries below differ from those in the screen. The call rests on the fitted dose curve; in most records, active means well fitted inhibition curve with a large enough effect; inconclusive means small, poorly fitted or top-dose-only effect; inactive means no such curve, though single readings can be large or run the other way. Potencies of inconclusive entries are doubtful fits and often do not repeat. More than one record can exist for a structure, and the calls need not agree.
# Molecular target: Histone-lysine N-methyltransferase EHMT2 (Homo sapiens) (UniProt Q96KQ7)
# Chain of UniProt Q96KQ7 (Q96KQ7 whole entry, looked up): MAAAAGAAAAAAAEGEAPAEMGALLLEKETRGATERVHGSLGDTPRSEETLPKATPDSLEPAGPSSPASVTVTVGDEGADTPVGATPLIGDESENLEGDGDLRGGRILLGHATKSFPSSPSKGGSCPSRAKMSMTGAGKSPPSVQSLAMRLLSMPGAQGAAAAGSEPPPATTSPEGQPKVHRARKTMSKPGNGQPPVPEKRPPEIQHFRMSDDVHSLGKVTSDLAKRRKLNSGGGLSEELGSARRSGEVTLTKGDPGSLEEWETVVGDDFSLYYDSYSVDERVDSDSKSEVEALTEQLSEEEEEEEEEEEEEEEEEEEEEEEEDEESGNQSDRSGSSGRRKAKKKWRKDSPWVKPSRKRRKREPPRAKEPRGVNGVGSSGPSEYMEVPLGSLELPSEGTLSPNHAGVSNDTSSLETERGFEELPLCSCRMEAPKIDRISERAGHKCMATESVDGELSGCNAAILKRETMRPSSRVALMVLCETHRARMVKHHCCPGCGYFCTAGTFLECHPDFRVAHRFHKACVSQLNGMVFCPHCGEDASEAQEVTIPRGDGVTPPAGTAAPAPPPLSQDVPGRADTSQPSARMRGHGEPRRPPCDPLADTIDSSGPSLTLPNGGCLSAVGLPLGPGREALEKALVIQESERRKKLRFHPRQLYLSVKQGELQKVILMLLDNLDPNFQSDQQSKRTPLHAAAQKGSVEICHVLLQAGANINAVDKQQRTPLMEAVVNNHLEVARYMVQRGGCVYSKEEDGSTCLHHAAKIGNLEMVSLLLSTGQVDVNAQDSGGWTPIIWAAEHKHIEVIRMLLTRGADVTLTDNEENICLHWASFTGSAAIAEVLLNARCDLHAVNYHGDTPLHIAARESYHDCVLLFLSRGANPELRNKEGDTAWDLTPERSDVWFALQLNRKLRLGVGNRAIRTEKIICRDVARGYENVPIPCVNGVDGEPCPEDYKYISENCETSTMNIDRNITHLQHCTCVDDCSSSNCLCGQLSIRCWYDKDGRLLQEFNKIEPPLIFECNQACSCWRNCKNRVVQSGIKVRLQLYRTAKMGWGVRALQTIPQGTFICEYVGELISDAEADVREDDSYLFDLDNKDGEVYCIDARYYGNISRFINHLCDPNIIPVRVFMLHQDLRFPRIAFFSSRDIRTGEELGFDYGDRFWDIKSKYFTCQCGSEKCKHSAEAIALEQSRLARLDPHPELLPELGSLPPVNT
# Assay: qHTS Assay for Inhibitors of Histone Lysine Methyltransferase G9a; further: nearly all actives have a fitted effect of over 75% in size
# Settings: G9a H3K9 monomethylation, AlphaScreen, 2 h; activity, negative = inhibition: at 59 µM (top of the series) unless noted
# Method in brief: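 Compounds were preincubated with 20 nM G9a for 15 min, after which biotinylated H3K9 peptide (500 nM) and SAM (20 uM) started a 2 h room-temperature reaction. Monomethylated product was quantified by antibody-based AlphaScreen chemiluminescence.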
# On the % scale 0 is the no-effect control and ±100 the full control effect; potency means the concentration at half of the fitted maximal effect; tags describe the fitted curve by direction and shape.
Structure (SMILES),"activity, negative = inhibition",Potency
COc1ccc(C2c3ccc(O)cc3Oc3ncn4nc(-c5cccnc5)nc4c32)cc1OC (centres undefined),inactive: 11.9% [at 102 µM],–
COc1ccc(C(=O)NC(=S)Nc2ccc3[nH]c(=O)[nH]c3c2)cc1,–,"inconclusive: 89.1 µM [inhibitor, single point]"
CC(=O)/C(=N\Nc1ccc(C)cc1)Sc1nncn1C,–,active: 8.91 µM
CCCCn1c(NCc2ccccn2)nc2ccccc21,–,"inconclusive: 5.62 µM [inhibitor, full curve, poor fit]"
CC(NC(=O)COC(=O)C1CCN(S(=O)(=O)c2ccccc2C(F)(F)F)CC1)c1ccccc1 (centres undefined),–,"inconclusive: 79.4 µM [inhibitor, single point]"
COc1cc(OC)c(OC)cc1CNc1cc(C)ccc1OC,–,active: 7.94 µM
CCOC(=O)C1CCN(S(=O)(=O)c2c(C)n[nH]c2C)CC1,–,"inconclusive: 17.8 µM [inhibitor, single point]"
CCCOc1ccc(C(=O)NNC(=S)NC(C)=O)cc1,–,"inconclusive: 10 µM [inhibitor, partial curve, poor fit]"
O=c1[nH]c(=S)[nH]c2nc(-c3cccs3)cc(C(F)(F)F)c12,–,active: 79.4 µM
C=CCC1CCCC(=O)N2CC[C@H](O)C12 (some centres undefined),–,inactive and active: 79.4 µM
CC(NC(=O)C1CCCN(C(=O)c2ccc(Cl)cc2)C1)c1cccc(C(F)(F)F)c1 (centres undefined),–,"inconclusive: 1.58 µM [inhibitor, partial curve]"
Cc1cc(C)c2c(=O)[nH]n(C(C)C)c2n1,–,"inconclusive: 1.12 µM [inhibitor, full curve, poor fit]"
O=C(O)CN1C(=O)NC2(CCCc3ccccc32)C1=O (centres undefined),–,"inconclusive: 89.1 µM [inhibitor, partial curve, poor fit]"
Cc1cc(C)cc(NC(=O)c2sc3nc[nH]c(=O)c3c2C)c1,inactive: -16.1%,–
CCCCCCCCCCCCCCCC[n+]1cccc2ccccc21,–,active: 6.31 µM
CC(=O)c1c(C)c2c(n1CCN(C)C)CCCC2,–,"inconclusive: 79.4 µM [inhibitor, partial curve, poor fit]"
O=C1N/C(=C/c2cccn2-c2ccc(F)cc2)C(=O)N1Cc1ccccc1F,–,"inconclusive: 39.8 µM [inhibitor, single point]"
c1ccc(CSc2nnc(-c3ccco3)c(-c3ccco3)n2)cc1,–,active: 6.31 µM
CCOc1ccccc1NC(=O)C1=C(C)Nc2ncnn2C1c1sccc1C (centres undefined),inactive: -1.58%,–
COc1ccc(NC(=O)COc2coc(CN3CCN(c4ccccc4)CC3)cc2=O)cc1,–,"inconclusive: 89.1 µM [inhibitor, single point]"
O=c1c(N2CCc3ccccc3C2)csc2ccc(F)cc12,–,"inconclusive: 22.4 µM [inhibitor, partial curve, poor fit]"
Cc1nn(-c2ccccc2)c(C)c1NC(=O)COC(=O)c1ccccc1,–,"inconclusive: 3.16 µM [inhibitor, full curve, poor fit]"
COc1ccc(NC(=S)N2CCN(C(=O)c3ccccc3)CC2)cc1,inactive: -6.96% [at 102 µM],–

Structure (SMILES),"activity, negative = inhibition",Potency
COCC(=O)Nc1nnc(Cc2ccc(OC)c(OC)c2)s1,inactive: -38.9% [at 102 µM],–
O=C(COC(=O)C12CC3CC(CC(O)(C3)C1)C2)Nc1ccc(OC(F)F)cc1,–,"inconclusive: 89.1 µM [inhibitor, single point]"
CCc1noc(C)c1C(=O)Nc1nc(-c2ccc(NC(C)=O)cc2)cs1,–,"inconclusive: 79.4 µM [inhibitor, partial curve, poor fit]"
CC1N(C)c2cc(NC(=O)c3cccs3)c(P(=O)(Nc3ccc([N+](=O)[O-])cc3)N3CCOCC3)cc2C1(C)C (centres undefined),–,"inconclusive: 50.1 µM [inhibitor, partial curve]"
Cc1noc(NS(=O)(=O)c2ccc(NC(=O)CSc3nc4c(cc3C#N)CCCCC4)cc2)c1C,–,active: 79.4 µM
C/C(=N\NC(=S)NCCc1ccccc1)c1ccc(C)cc1,inactive: 9.64%,–
O=C(Nc1ccc(Br)cc1)c1cccc(NC(=O)C2C3CC4OC(=O)C2C4C3)c1 (centres undefined),–,"inconclusive: 31.6 µM [inhibitor, partial curve]"
Cc1nn(-c2ccccc2)c(N)c1Sc1ccc([N+](=O)[O-])cc1,–,active: 10 µM
COCc1ccc2oc(C(=O)O)cc2c1,–,"inconclusive: 50.1 µM [inhibitor, partial curve]"
COc1ccc(C)cc1NC(=O)c1ccc2nc(Cc3ccccc3)oc2c1,inactive: 9.14%,–
CCn1c2c(c(=O)n3ncc(C(=O)Nc4ccc(C(=O)OC)cc4)c13)CN(Cc1ccc(OC)cc1)CC2,–,active: 28.2 µM
COc1ccc(CCNC(=O)c2c(O)nc3c(C)cccn3c2=O)cc1OC,inactive: -37.9%,–
O=C(NCc1ccco1)c1ccc2c(=O)n(Cc3ccco3)c(SCC(=O)N3CCCC3)nc2c1,–,active: 79.4 µM
CSc1nc(-c2ccccc2)nc2c1COC(C)(C)C2,–,"inconclusive: 35.5 µM [inhibitor, single point]"
CCOc1ccc(/C=N/N2CCN(Cc3ccccc3)CC2)cc1,–,active: 39.8 µM
Cc1cc(NC(=O)Cn2c(=O)c3c(ncn3CC(C)C)n(Cc3ccccc3)c2=O)no1,–,"inconclusive: 28.2 µM [inhibitor, single point]"
Cc1cc(C(=O)N2CCc3c([nH]c4ccccc34)C2c2cccc(Cl)c2)nn1C (centres undefined),–,active: 39.8 µM
O=C(N/N=C/c1ccc(Sc2nc3ccccc3s2)c([N+](=O)[O-])c1)c1ccccn1,inactive: 59% [at 102 µM],–
CC(C)c1ccc(NC2CCCN(C(=O)CCc3cn[nH]c3)C2)cc1 (centres undefined),–,"inconclusive: 15.8 µM [inhibitor, full curve]"
COc1ccc(NS(=O)(=O)c2ccc3oc(SCc4ccc(F)cc4)nc3c2)cc1,–,active: 79.4 µM
CCn1c2ccccc2c2cc(CN3CCN(Cc4ccc(OC)c(OC)c4)CC3)ccc21,–,"inconclusive: 7.08 µM [inhibitor, full curve, poor fit]"
Cc1c(C(=O)NCCc2ccc(Cl)cc2)cccc1-n1cnc2cccnc21,–,"inconclusive: 6.31 µM [inhibitor, single point]"
CCOc1ccc(OCc2ccc(C(=O)Nc3cccc(C)n3)o2)cc1,–,active: 44.7 µM

Structure (SMILES),"activity, negative = inhibition",Potency
CC(C)N1CCc2c(sc(NC(=O)c3ccc(S(=O)(=O)N4CCCCC4C)cc3)c2C(N)=O)C1 (centres undefined),inactive: -19.2% [at 102 µM],–
COC(=O)C(C)Sc1nnc(Cc2cc(=O)[nH]c(=O)[nH]2)n1-c1ccc(Cl)cc1 (centres undefined),–,"inconclusive: 39.8 µM [inhibitor, partial curve, poor fit]"
Cc1c(C(=O)N2CCOCC2)sc2ncnc(N3CCc4ccccc4C3)c12,–,"inconclusive: 56.2 µM [inhibitor, partial curve, poor fit]"
O=c1c(-c2ccc(F)cc2)coc2cc(O)ccc12,–,"inconclusive: 89.1 µM [inhibitor, partial curve, poor fit]"
COc1ccc(N2CCN(C(=O)CSc3nc4ccccc4nc3Cc3ccc(Cl)cc3)CC2)cc1,–,"inconclusive: 12.6 µM [inhibitor, partial curve, poor fit]"
Cc1ccc(S(=O)(=O)CNC(=O)c2ccccc2)cc1,–,"inconclusive: 79.4 µM [inhibitor, single point]"
c1coc(-c2nnc3n2C2(CCCC2)Cc2ccccc2-3)c1,–,"inconclusive: 35.5 µM [inhibitor, single point]"
Cn1c(SCCN2CCCCC2)nnc1-c1ccccc1Br,–,"inconclusive: 3.16 µM [inhibitor, single point]"
COc1cccc(CCNC(=O)C2CCCN(c3ncnc4c3nc3n4CCCCC3)C2)c1OC (centres undefined),–,"inconclusive: 39.8 µM [inhibitor, single point]"
O=C(NC1CC(=O)N(c2cccc(F)c2)C1)C(=O)c1c[nH]c2ccccc12 (centres undefined),–,"inconclusive: 11.2 µM [inhibitor, partial curve, poor fit]"
COc1ccc(-n2c(SCC(=O)NCc3ccccc3)nc3c([nH]c4ccccc43)c2=O)cc1,inactive: 1.76%,–
Cc1ccc(S(=O)(=O)Nc2ccc(O)c3cccnc23)cc1,–,"inconclusive: 3.55 µM [inhibitor, full curve, poor fit]"
CCOC(=O)Cc1csc(SCC(=O)NC2CCCCC2)n1,–,"inconclusive: 10 µM [inhibitor, partial curve]"
CC(=O)N(CN1C(=O)C2CC=CCC2C1=O)c1cccc(Cl)c1 (centres undefined),–,"inconclusive: 89.1 µM [inhibitor, single point]"
CCN(CC)c1ccc(NC(=O)COC(=O)CSc2ccc(Br)cc2C)cc1,–,active: 8.91 µM
Cc1ccc(N(Cc2cccs2)C(=O)c2ccco2)cc1,inactive: -7.26%,–
COc1cccc(CSc2nc3ccncc3[nH]2)c1,inactive: 21.6% [at 102 µM],–
CC(C)(C)OC(=O)N1CCCC(C(=O)CC#N)C1 (centres undefined),–,"inconclusive: 79.4 µM [inhibitor, single point]"
Nc1c(S(=O)(=O)O)cc(Nc2ccc(Nc3nc(Cl)nc(Nc4ccc(S(=O)(=O)O)cc4)n3)c(S(=O)(=O)O)c2)c2c1C(=O)c1ccccc1C2=O,–,active: 2.24 µM and active: 1 µM
Cc1ccc2nc(-c3ccc(-c4ccccn4)s3)cn2c1,inconclusive: -77.1% [inhibitor],–
CC(C)(C)NC(=O)CSc1nnc(Cc2ccccc2)n1CC1CCCO1 (centres undefined),inactive: -32.2% [at 102 µM],–
C/C(Cn1nnc([N+](=O)[O-])n1)=N\NC(=O)c1ccncc1,–,"inconclusive: 79.4 µM [inhibitor, partial curve, poor fit]"
N#Cc1c(NC(=O)CSc2nnc(-c3ccncc3)n2CC2CCCO2)sc2c1CCCC2 (centres undefined),–,"inconclusive: 79.4 µM [inhibitor, single point]"
